Results published in patent publication US11053313B2, “Anti-CLDN-5 antibody, and drug containing said antibody” (OSAKA UNIVERSITY, priority 2017, dated 2021).

Key:
1-1-5 = target: T1, 1-1-5 (Homo sapiens, UniProt O00501, A34S/A72N/D37G/E76T/F35Y/G26A/H38D/H61Q/K48E/L36A/M29Q/M62I/Q31R/T33Y/T45A/T46M/T75S/V32I/V56S/V70L/W47Y/Y67F); experiment: Epitope analysis FACS, chimeric protein 1-1-5; type: binding; conditions: antibody concentration 5 μg/mL; first extracellular loop substituted with hCLDN-1
T1 construct: expressed in transfected cells; host or cells: retrovirus-infected cells (pCX4pur)
T1 sequence (O00501 1-218 G26A/M29Q/Q31R/V32I/T33Y/A34S/F35Y/L36A/D37G/H38D/T45A/T46M/W47Y/K48E/V56S/H61Q/M62I/Y67F/V70L/A72N/T75S/E76T): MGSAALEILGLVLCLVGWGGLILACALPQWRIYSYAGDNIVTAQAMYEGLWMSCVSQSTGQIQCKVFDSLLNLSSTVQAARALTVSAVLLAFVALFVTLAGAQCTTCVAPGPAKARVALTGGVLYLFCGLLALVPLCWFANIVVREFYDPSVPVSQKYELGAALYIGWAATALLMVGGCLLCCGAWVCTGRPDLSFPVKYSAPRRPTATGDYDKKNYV

hCLDN-5 [1] = experiment: Epitope analysis by hCLDN-5/mCLDN-5 chimeric CLDN (D68E, T75A, S151T, TM; FACS); type: binding, human; conditions: antibody concentration 5 μg/mL, mutants D68E
5-5-1 = target: T2, 5-5-1 (Homo sapiens, UniProt O00501, A162Q/K157R/L160F/Q156A/S151M/S155N/V152T); experiment: Epitope analysis FACS, chimeric protein 5-5-1; type: binding; conditions: antibody concentration 5 μg/mL; second extracellular loop substituted with hCLDN-1
T2 construct: expressed in transfected cells; host or cells: retrovirus-infected cells (pCX4pur)
T2 sequence (O00501 1-218 S151M/V152T/S155N/Q156A/K157R/L160F/A162Q): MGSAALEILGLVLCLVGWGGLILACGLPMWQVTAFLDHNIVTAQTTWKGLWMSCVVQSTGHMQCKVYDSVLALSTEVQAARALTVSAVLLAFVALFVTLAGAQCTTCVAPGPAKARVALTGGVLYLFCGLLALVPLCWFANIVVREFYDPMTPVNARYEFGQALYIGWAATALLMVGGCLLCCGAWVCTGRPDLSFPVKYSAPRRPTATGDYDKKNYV

hCLDN-5 [2] = experiment: Epitope analysis by hCLDN-5/hCLDN-1 chimeric CLDN (FACS), loop assignment; type: binding, human; conditions: antibody concentration 5 μg/mL, hCLDN-5/hCLDN-1 chimeras
MDCKII/hCLDN-5 = experiment: TEER of CLDN-5 compulsory expression system, MDCKII/hCLDN-5; type: cell-based, human; conditions: MDCKII/hCLDN-5, FIG. 7B

B1: M3: mouse anti-CLDN-5 monoclonal antibody, IgG2b/K; VH SEQ ID NO: 1, VL SEQ ID NO: 2; example of antibody A (antibody, V domains shown)
VH: EVQLQQSGPELVKPGASVKISCKASGYSFTGYYMNWVKQSPEKSLEWIGDINPSTGGATYNQKFKAKATLTVDKSSSTAYMQLKSLTSEDSAVFYCALYSNYGFVYWGQGTLVTVSA
VL: DVVMTQTPLTLSVTLGQPASISCKSSQSLLYSDGKTYLNWLLQRPGQSPKRLIYLVSKLDSGVPDRFTGSGSGTDFTLKISRVEAEDLGLYYCVQGIHFPRTFGGGTKLEIK
modifications: M3 VH; M3 VL
1-1-5
  recognition of 1-1-5: capable of recognizing
hCLDN-5 [1]
  portion of hCLDN-5 recognized: three-dimensional structure created by the transmembrane domain of hCLDN-5
5-5-1
  recognition of 5-5-1: incapable of recognizing
hCLDN-5 [2]
  extracellular loop of CLDN-5 recognized: second extracellular loop
MDCKII/hCLDN-5
  reduction in TEER: greatly reducing TEER
